These results are taken from paper PMC7540527, “Synthesis of Antiviral Perfluoroalkyl Derivatives of Teicoplanin and Vancomycin” (Chemmedchem, 2020).

Values after ≈ are worked out from the molar mass of the structure shown.

In the first series the test system is S. epidermidis mecA. Description: microbe, parasite or virus in culture. It is filed as cell-based, Staphylococcus epidermidis. The conditions noted are these: Staphylococcus epidermidis, read-out: MIC S. epidermidis mecA. The procedure: Compounds 1 b,40 8,29 9 30 and 14 18 were synthesized according to the literature. Compound 1 a was purchased from Sigma‐Aldrich, nonafluoro‐1‐iodobutane from TCI and heptadecafluoro‐1‐iodooctane from Alfa Aesar. TLC was performed on Kieselgel 60 F254 (Merck) with detection either by immersing into ammonium molybdate‐sulfuric acid solution followed by heating or by using Pauly's reagent for detection. Flash column chromatography was performed using Silica gel 60 (Merck 0.040–0.063 mm). The photoinitiated reactions were carried out in a borosilicate vessel by irradiation with a Hg lamp giving maximum emission at 365 nm. The ^1H NMR (500, 400 and 360 MHz) ^13C NMR (125, 100 and 90 MHz) and 2D NMR spectra were recorded with a Bruker DRX‐360, Bruker DRX‐400 and Bruker Avance II 500 spectrometer at 298 or 300 K. For DOSY (Diffusion Ordered Spectroscopy) experiments, Bruker AVANCE‐II, 500 MHz spectrometer was applied, with manufacturer‘s “ledbpgp2 s” pulse sequence. Chemical shifts are referenced to Me4Si (0.00 ppm for ^1H) and to the solvent residual signals. MALDI‐TOF MS analyses of the compounds were carried out in the positive reflectron mode (20 kV) using a BIFLEX III mass spectrometer (Bruker) equipped with delayed‐ion extraction. A nitrogen laser (337 nm, 3 ns pulse width, 106–107 W/cm^2) operating at 4 Hz was applied to produce laser desorption. 2,5‐Dihydroxybenzoic acid (DHB) was used as matrix and F3CCOONa as cationizing agent in DMF. ESI‐QTOF MS measurements were carried out on a maXis II UHR ESI‐QTOF MS instrument (Bruker), in positive ionization mode. The following parameters were applied for the electrospray ion source: capillary voltage: 3.5 kV; end plate offset: 500 V; nebulizer pressure: 0.8 bar; dry gas temperature: 200 °C and dry gas flow rate: 4.5 L/min. Constant background correction was applied for each spectrum, the background was recorded before each sample by injecting the blank sample matrix (solvent). Na‐formate calibrant was injected after each sample, which enabled internal calibration during data evaluation. Mass spectra were recorded by otofControl version 4.1 (build: 3.5, Bruker) and processed by Compass DataAnalysis version 4.4 (build: 200.55.4). The antibacterial evaluations were carried out as it was described in our previous publication.27b
Regarding `CC(=O)NC1C(OC2c3ccc(c(Cl)c3)Oc3cc4cc(c3O)Oc3ccc(cc3Cl)CC3NC(=O)C(n5cc(COCCOCCOCCOCCOCCCC(F)(F)C(F)(F)C(F)(F)C(F)(F)C(F)(F)C(F)(F)C(F)(F)C(F)(F)F)nn5)c5ccc(O)c(c5)Oc5cc(O)cc(c5)C(NC3=O)C(=O)NC4C(=O)NC3C(=O)NC2C(=O)NC(C(=O)O)c2cc(O)cc(O)c2-c2cc3ccc2O)OC(CO)C(O)C1O` (stereo not drawn) [Compound 18], the MIC came out at 8 µg/mL (≈ 3.77 µM).

Regarding `CC(=O)NC1C(OC2c3ccc(c(Cl)c3)Oc3cc4cc(c3O)Oc3ccc(cc3Cl)CC3NC(=O)C(n5cc(COCCOCCCC(F)(F)C(F)(F)C(F)(F)C(F)(F)F)nn5)c5ccc(O)c(c5)Oc5cc(O)cc(c5)C(NC3=O)C(=O)NC4C(=O)NC3C(=O)NC2C(=O)NC(C(=O)O)c2cc(O)cc(O)c2-c2cc3ccc2O)OC(CO)C(O)C1O` (stereo not drawn) [Compound 15], the MIC was 0.5 µg/mL (≈ 0.28 µM).

`CC(=O)NC1C(OC2c3ccc(c(Cl)c3)Oc3cc4cc(c3O)Oc3ccc(cc3Cl)CC3NC(=O)C(n5cc(COCCOCCOCCOCCOCCCC(F)(F)C(F)(F)C(F)(F)C(F)(F)F)nn5)c5ccc(O)c(c5)Oc5cc(O)cc(c5)C(NC3=O)C(=O)NC4C(=O)NC3C(=O)NC2C(=O)NC(C(=O)O)c2cc(O)cc(O)c2-c2cc3ccc2O)OC(CO)C(O)C1O` (stereo not drawn) [Compound 16]: the MIC turned out to be 0.5 µg/mL (≈ 0.26 µM).

Consider `CN[C@H](CC(C)C)C(=O)N[C@H]1C(=O)N[C@@H](CC(N)=O)C(=O)N[C@H]2C(=O)N[C@H]3C(=O)N[C@H](C(=O)N[C@H](C(=O)O)c4cc(O)cc(O)c4-c4cc3ccc4O)[C@H](O)c3ccc(c(Cl)c3)Oc3cc2cc(c3O[C@@H]2O[C@H](CO)[C@@H](O)[C@H](O)[C@H]2O[C@H]2C[C@](C)(N)[C@H](O)[C@H](C)O2)Oc2ccc(cc2Cl)[C@H]1O` [VAN, vancomycin], for which the MIC was 4 µg/mL (≈ 2.76 µM).

Regarding `CC(C)C[C@H](C(=O)N[C@H]1C(=O)N[C@@H](CC(N)=O)C(=O)N[C@H]2C(=O)N[C@H]3C(=O)N[C@H](C(=O)N[C@H](C(=O)O)c4cc(O)cc(O)c4-c4cc3ccc4O)[C@H](O)c3ccc(c(Cl)c3)Oc3cc2cc(c3O)Oc2ccc(cc2Cl)[C@H]1O)n1cc(COCCOCCOCCOCCOCCCC(F)(F)C(F)(F)C(F)(F)C(F)(F)F)nn1` [Compound 12], the MIC was 8 µg/mL (≈ 4.85 µM).

On to `CC(=O)NC1C(OC2c3ccc(c(Cl)c3)Oc3cc4cc(c3O)Oc3ccc(cc3Cl)CC3NC(=O)C(n5cc(COCCOCCCC(F)(F)C(F)(F)C(F)(F)C(F)(F)C(F)(F)C(F)(F)C(F)(F)C(F)(F)F)nn5)c5ccc(O)c(c5)Oc5cc(O)cc(c5)C(NC3=O)C(=O)NC4C(=O)NC3C(=O)NC2C(=O)NC(C(=O)O)c2cc(O)cc(O)c2-c2cc3ccc2O)OC(CO)C(O)C1O` (stereo not drawn) [Compound 17], for which the MIC worked out at 256 µg/mL (≈ 129 µM).

On to `CC(C)C[C@H](C(=O)N[C@H]1C(=O)N[C@@H](CC(N)=O)C(=O)N[C@H]2C(=O)N[C@H]3C(=O)N[C@H](C(=O)N[C@H](C(=O)O)c4cc(O)cc(O)c4-c4cc3ccc4O)[C@H](O)c3ccc(c(Cl)c3)Oc3cc2cc(c3O)Oc2ccc(cc2Cl)[C@H]1O)n1cc(COCCOCCOCCOCCOCCCC(F)(F)C(F)(F)C(F)(F)C(F)(F)C(F)(F)C(F)(F)C(F)(F)C(F)(F)F)nn1` [Compound 13], for which the MIC was determined as 8 µg/mL (≈ 4.33 µM).

The series is the same for the next values; noted with them: mecA gene expression.
Turning to teicoplanin [reference compound], the “MIC S. epidermidis mecA” value is 16 µg/mL.

Tested on in the next series: not given
Experiment: not given
Conditions: not given
Format: physicochemical. On the procedure: In addition to NMR structure validation (see the Supporting Information, including ^13C HSQC, HMBC, ^13C and ^19F spectra and spectral assignments) we tested compound 17 for possible oligomerization. […] About 20 mg of sample 17 was dissolved in 500 μL MeOD and measured at 300 K temperature. Spectra were recorded with 32 or 64 linear gradient steps and evaluated with topspin 2.1 software using inverse Laplace transformation to obtain diffusion domain. These experiments yielded MW between 7–8 kDa when referenced to internal TMS. (Figure S1). However, in repeated measurements with ∼3 mg of 17 dissolved in MeOD and referenced to internal β‐CD, DOSY yielded only 2.4 kDa mass for 17, that is closer to monomeric state (Figure S2). In control DOSY experiments of teicoplanin and vancomycin dissolved in [D6]DMSO with β‐CD mass reference, DOSY yielded the monomeric molecular masses as expected.
With `CC(=O)NC1C(OC2c3ccc(c(Cl)c3)Oc3cc4cc(c3O)Oc3ccc(cc3Cl)CC3NC(=O)C(n5cc(COCCOCCCC(F)(F)C(F)(F)C(F)(F)C(F)(F)C(F)(F)C(F)(F)C(F)(F)C(F)(F)F)nn5)c5ccc(O)c(c5)Oc5cc(O)cc(c5)C(NC3=O)C(=O)NC4C(=O)NC3C(=O)NC2C(=O)NC(C(=O)O)c2cc(O)cc(O)c2-c2cc3ccc2O)OC(CO)C(O)C1O` (stereo not drawn) [Compound 17], the Solubility in water result is “not soluble in water”.
